According to patent US20250214977A1, “STAT6 INHIBITORS AND USES THEREOF” (Kymera Therapeutics, Inc., priority 2024, published 2025):

The molecules below were run against T1, biotinylated truncated STAT6 (123-632)-avi (Homo sapiens, UniProt P42226) (assay: Homogenous Time-Resolved Fluorescence (HTRF) binding assay). Conditions: 0.15 nM biotinylated truncated STAT6 (123-632)-avi, 20 nM fluorescein-labeled probe, 30 minutes at room temperature.
T1 sequence (P42226 123-632 limits assumed): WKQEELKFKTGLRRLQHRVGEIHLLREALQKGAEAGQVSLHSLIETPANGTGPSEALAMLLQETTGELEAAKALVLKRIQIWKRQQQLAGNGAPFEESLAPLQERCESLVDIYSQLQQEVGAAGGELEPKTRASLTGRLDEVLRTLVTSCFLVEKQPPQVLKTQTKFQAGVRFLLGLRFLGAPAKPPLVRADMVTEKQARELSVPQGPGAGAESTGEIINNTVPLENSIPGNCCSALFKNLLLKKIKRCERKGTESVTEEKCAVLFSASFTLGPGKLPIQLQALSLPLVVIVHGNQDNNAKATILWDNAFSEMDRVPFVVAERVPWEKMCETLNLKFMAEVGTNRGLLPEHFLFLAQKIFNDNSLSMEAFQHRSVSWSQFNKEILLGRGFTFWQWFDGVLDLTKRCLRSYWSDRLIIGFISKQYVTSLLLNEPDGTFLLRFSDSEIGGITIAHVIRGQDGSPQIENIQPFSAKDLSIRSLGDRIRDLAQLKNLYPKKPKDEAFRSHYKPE

SMILES	IC50
COc1ccccc1-c1cc(C2=CCCN(C(=O)CCn3ccnn3)C2)c(F)c2[nH]c(C(=O)N3Cc4cccc(F)c4C3)cc12 [Example I-982]	> 100000 nM
COc1ccccc1-c1cc(C2=CCCN(C(=O)CCn3ccnn3)C2)c(F)c2[nH]c(C(=O)N3CCNC(=O)CC3)cc12 [Example I-983]	< 100 nM
COc1ccccc1-c1cc(C2=CCCN(C(=O)CCn3ccnn3)C2)c(F)c2[nH]c(C(=O)N3CCC(OC4CCC4)CC3)cc12 [Example I-984]	< 100 nM
COc1ccccc1-c1cc(C2=CCCN(C(=O)CCn3ccnn3)C2)c(F)c2[nH]c(C(=O)N3CCOCC3)cc12 [Example I-985]	< 100 nM
COc1ccccc1-c1cc(C2=CCCN(C(=O)CCn3ccnn3)C2)c(F)c2[nH]c(C(=O)N3CC4CCN(Cc5ccccc5)C4C3)cc12 (centres unmarked) [Example I-987]	1000 to 10000 nM
COC(=O)N1CCN(C(=O)c2cc3c(-c4ccccc4OC)cc(C4=CCCN(C(=O)CCn5ccnn5)C4)c(F)c3[nH]2)CC1 [Example I-988]	< 100 nM
COc1ccccc1-c1cc(C2=CCCN(C(=O)CCn3ccnn3)C2)c(F)c2[nH]c(C(=O)N3CCN(S(C)(=O)=O)CC3)cc12 [Example I-989]	< 100 nM
CNc1ccc(-c2cc(C3=CCCN(C(=O)CCn4ccnn4)C3)c(F)c3[nH]c(C(=O)N4CCN(C)CC4)cc23)c(OC)c1 [Example I-990]	< 100 nM
COc1ccccc1C(=O)N1CCN(C(=O)c2cc3c(-c4ccccc4OC)cc(C4=CCCN(C(=O)CCn5ccnn5)C4)c(F)c3[nH]2)CC1 [Example I-991]	< 100 nM
COc1ccccc1-c1cc(C2=CCCN(C(=O)CCn3ccnn3)C2)c(F)c2[nH]c(C(=O)N3CC(Oc4cccnc4)C3)cc12 [Example I-992]	< 100 nM
COc1ccccc1-c1cc(C2=CCCN(C(=O)CCn3ccnn3)C2)c(F)c2[nH]c(C(=O)Nc3ccnn3C)cc12 [Example I-993]	100 to 1000 nM
COc1ccccc1-c1cc(C2=CCCN(C(=O)CCn3ccnn3)C2)c(F)c2[nH]c(C(=O)N3CCC(=O)N(C)CC3)cc12 [Example I-994]	< 100 nM
COc1ccccc1-c1cc(C2=CCCN(C(=O)CCn3ccnn3)C2)c(F)c2[nH]c(C(=O)N3CCN(c4ncccn4)C[C@@H]3C)cc12 [Example I-995]	< 100 nM
COc1ccccc1-c1cc(C2=CCCN(C(=O)CCn3ccnn3)C2)c(F)c2[nH]c(C(=O)N3CCNC(=O)[C@@H]3C)cc12 [Example I-996]	< 100 nM
COC(=O)C1CN(C(=O)c2cc3c(-c4ccccc4OC)cc(C4=CCCN(C(=O)CCn5ccnn5)C4)c(F)c3[nH]2)CC1C (centres unmarked) [Example I-998]	< 100 nM
COc1ccccc1-c1cc(C2=CCCN(C(=O)CCn3ccnn3)C2)c(F)c2[nH]c(C(=O)N3CC(Oc4ccc(F)cc4)C3)cc12 [Example I-999]	< 100 nM
COc1ccccc1-c1cc(C2=CCCN(C(=O)CCn3ccnn3)C2)c(F)c2[nH]c(C(=O)N3CCC4(CC3)OCCO4)cc12 [Example I-1000]	< 100 nM
C#CCOC1CCN(C(=O)c2cc3c(-c4ccccc4OC)cc(C4=CCCN(C(=O)CCn5ccnn5)C4)c(F)c3[nH]2)CC1 [Example I-1001]	< 100 nM
COc1ccccc1-c1cc(C2=CCCN(C(=O)CCn3ccnn3)C2)c(F)c2[nH]c(C(=O)N3CCC(c4cccnc4C)CC3)cc12 [Example I-1002]	< 100 nM
COc1ccccc1-c1cc(C2=CCCN(C(=O)CCn3ccnn3)C2)c(F)c2[nH]c(C(=O)N3CCN(c4ccc[nH]c4=O)CC3)cc12 [Example I-1003]	< 100 nM
COC(=O)c1cc(N2CCN(C(=O)c3cc4c(-c5ccccc5OC)cc(C5=CCCN(C(=O)CCn6ccnn6)C5)c(F)c4[nH]3)CC2)cn1C [Example I-1004]	< 100 nM
COc1ccccc1-c1cc(C2=CCCN(C(=O)CCn3ccnn3)C2)c(F)c2[nH]c(C(=O)N3CCN(c4cnn(C)c4C#N)CC3)cc12 [Example I-1005]	< 100 nM
COc1ccccc1-c1cc(C2=CCCN(C(=O)CCn3ccnn3)C2)c(F)c2[nH]c(C(=O)N3CCC(C)(O)C3)cc12 (centres unmarked) [Example I-1006]	100 to 1000 nM
COc1ccccc1-c1cc(C2=CCCN(C(=O)CCn3ccnn3)C2)c(F)c2[nH]c(C(=O)N3CCN(c4ccccn4)C(=O)C3)cc12 [Example I-1008]	< 100 nM
COc1ccccc1-c1cc(C2=CCCN(C(=O)CCn3ccnn3)C2)c(F)c2[nH]c(C(=O)N3CCN(c4ccc(C#N)cc4F)CC3)cc12 [Example I-1009]	< 100 nM
COc1ccccc1-c1cc(C2=CCCN(C(=O)CCn3ccnn3)C2)c(F)c2[nH]c(C(=O)N3CCc4ncncc4C3)cc12 [Example I-1010]	< 100 nM
COc1ccccc1-c1cc(C2=CCCN(C(=O)CCn3ccnn3)C2)c(F)c2[nH]c(C(=O)N3CCC4CC43)cc12 (centres unmarked) [Example I-1011]	< 100 nM

SMILES	IC50
COc1ccccc1-c1cc(C2=CCCN(C(=O)CCn3ccnn3)C2)c(F)c2[nH]c(C(=O)N3CCc4ccc(N)cc4C3)cc12 [Example I-1012]	< 100 nM
COc1ccccc1-c1cc(C2=CCCN(C(=O)CCn3ccnn3)C2)c(F)c2[nH]c(C(=O)N3CCN(c4cnn5c4CCC5)CC3)cc12 [Example I-1013]	< 100 nM
COc1ccccc1-c1cc(C2=CCCN(C(=O)CCn3ccnn3)C2)c(F)c2[nH]c(C(=O)N3CCN(CC4(C#N)CC4)CC3)cc12 [Example I-1014]	< 100 nM
COc1ccccc1-c1cc(C2=CCCN(C(=O)CCn3ccnn3)C2)c(F)c2[nH]c(C(=O)N3CCN(c4cnn5ccncc45)CC3)cc12 [Example I-1015]	< 100 nM
COc1ccccc1-c1cc(C2=CCCN(C(=O)CCn3ccnn3)C2)c(F)c2[nH]c(C(=O)N3CCN(c4cn(C)c5ncncc45)CC3)cc12 [Example I-1016]	< 100 nM
COc1ccccc1-c1cc(C2=CCCN(C(=O)CCn3ccnn3)C2)c(F)c2[nH]c(C(=O)N3CCN(c4cnc5ncccn45)CC3)cc12 [Example I-1017]	< 100 nM
COc1ccccc1-c1cc(C2=CCCN(C(=O)CCn3ccnn3)C2)c(F)c2[nH]c(C(=O)N3CCN(c4c(C)ccn5nccc45)CC3)cc12 [Example I-1019]	< 100 nM
COc1ccccc1-c1cc(C2=CCCN(C(=O)CCn3ccnn3)C2)c(F)c2[nH]c(C(=O)N3CCN(c4cccn(C)c4=O)CC3)cc12 [Example I-1021]	< 100 nM
COc1ccccc1-c1cc(C2=CCCN(C(=O)CCn3ccnn3)C2)c(F)c2[nH]c(C(=O)N3CCN(c4ccc(=O)[nH]c4C)CC3)cc12 [Example I-1022]	< 100 nM
COc1ccccc1-c1cc(C2=CCCN(C(=O)CCn3ccnn3)C2)c(F)c2[nH]c(C(=O)N3CCN(c4cc(C)c(=O)n(C)c4)CC3)cc12 [Example I-1023]	< 100 nM
COc1ccccc1-c1cc(C2=CCCN(C(=O)CCn3ccnn3)C2)c(F)c2[nH]c(C(=O)N3CCN(c4nc(C)cs4)CC3)cc12 [Example I-1024]	< 100 nM
COc1ccccc1-c1cc(C2=CCCN(C(=O)CCn3ccnn3)C2)c(F)c2[nH]c(C(=O)N3CCN(c4cncn4C)CC3)cc12 [Example I-1026]	< 100 nM
COCc1cccc(NC(=O)c2cc3c(-c4ccccc4OC)cc(C4=CCCN(C(=O)CCn5ccnn5)C4)c(F)c3[nH]2)c1 [Example I-1028]	1000 to 10000 nM
COc1ccccc1-c1cc(C2=CCCN(C(=O)CCn3ccnn3)C2)c(F)c2[nH]c(C(=O)N3CCc4nocc4C3)cc12 [Example I-1029]	< 100 nM
COc1ccccc1-c1cc(C2=CCCN(C(=O)CCn3ccnn3)C2)c(F)c2[nH]c(C(=O)N3CCN(c4c(C)cc[nH]c4=O)CC3)cc12 [Example I-1030]	< 100 nM
COc1ccccc1-c1cc(C2=CCCN(C(=O)CCn3ccnn3)C2)c(F)c2[nH]c(C(=O)N3CCC(=O)C3)cc12 [Example I-1031]	< 100 nM
COc1ccccc1-c1cc(C2=CCCN(C(=O)CCn3ccnn3)C2)c(F)c2[nH]c(C(=O)N3CCN(c4cc(C)c(O)c(C)c4)CC3)cc12 [Example I-1032]	100 to 1000 nM
COc1ccccc1-c1cc(C2=CCCN(C(=O)CCn3ccnn3)C2)c(F)c2[nH]c(C(=O)N3CCN(c4ncn5c4CCCC5)CC3)cc12 [Example I-1034]	< 100 nM
COc1ccccc1-c1cc(C2=CCCN(C(=O)CCn3ccnn3)C2)c(F)c2[nH]c(C(=O)N3CC4CN(c5ncccc5OC)CC4C3)cc12 (centres unmarked) [Example I-1035]	100 to 1000 nM
CCOc1ccncc1-c1cc(C2=CCCN(C(=O)CCn3ccnn3)C2)c(F)c2[nH]c(C(=O)N3CCN(c4cnc(C)nc4OC)CC3)cc12 [Example I-1036]	< 100 nM
COc1cc(Cl)cnc1N1CCN(C(=O)c2cc3c(-c4cnc5ccccc5c4OC)cc(C4=CCCN(C(=O)CCn5ccnn5)C4)c(F)c3[nH]2)CC1 [Example I-1037]	100 to 1000 nM
COc1cccc(N2CCN(C(=O)c3cc4c(-c5cnc6ccccc6c5OC)cc(C5=CCCN(C(=O)CCn6ccnn6)C5)c(F)c4[nH]3)CC2)n1 [Example I-1038]	100 to 1000 nM
COc1cc(N(C)C)ccc1-c1cc(C2=CCCN(C(=O)CCn3ccnn3)C2)c(F)c2[nH]c(C(=O)N3CCN(c4ncc(Cl)cc4OC)CC3)cc12 [Example I-1039]	< 100 nM
CCc1ccncc1-c1cc(C2=CCCN(C(=O)CCn3ccnn3)C2)c(F)c2[nH]c(C(=O)N3CCN(c4ncc(C(F)(F)F)cc4OC)CC3)cc12 [Example I-1040]	< 100 nM
CCOc1ccncc1-c1cc(C2=CCCN(C(=O)CCn3ccnn3)C2)c(F)c2[nH]c(C(=O)N3CCN(c4ncc(C)nc4OC)CC3)cc12 [Example I-1041]	< 100 nM
CN(C(=O)c1cc2c(-c3cncnc3C3CC3)cc(C3=CCCN(C(=O)CCn4ccnn4)C3)c(F)c2[nH]1)C1CC1 [Example I-1043]	> 100000 nM
